Legend:
Experiment in all cases: GST pull-down, LC-MS/MS
[1] = target: Slc25a1_IPI:IPI00276926.3 (mouse, UniProt Q8JZU2 14-311)
[2] = target: T1, Ccdc127_IPI:IPI00131843.3 (mouse, UniProt Q3TC33 1-260, limits assumed)
T1 sequence (looked up): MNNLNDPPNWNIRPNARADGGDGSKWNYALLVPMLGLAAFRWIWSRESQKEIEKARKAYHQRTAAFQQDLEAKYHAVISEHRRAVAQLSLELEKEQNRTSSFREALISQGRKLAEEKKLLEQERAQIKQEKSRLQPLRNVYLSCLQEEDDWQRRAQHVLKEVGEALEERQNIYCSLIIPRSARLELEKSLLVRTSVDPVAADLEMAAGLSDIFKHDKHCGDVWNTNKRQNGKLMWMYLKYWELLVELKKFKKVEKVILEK

[3] = target: T2, Nubpl_IPI:IPI00317709.1 (mouse, UniProt Q9CWD8 39-319)
T2 sequence (looked up): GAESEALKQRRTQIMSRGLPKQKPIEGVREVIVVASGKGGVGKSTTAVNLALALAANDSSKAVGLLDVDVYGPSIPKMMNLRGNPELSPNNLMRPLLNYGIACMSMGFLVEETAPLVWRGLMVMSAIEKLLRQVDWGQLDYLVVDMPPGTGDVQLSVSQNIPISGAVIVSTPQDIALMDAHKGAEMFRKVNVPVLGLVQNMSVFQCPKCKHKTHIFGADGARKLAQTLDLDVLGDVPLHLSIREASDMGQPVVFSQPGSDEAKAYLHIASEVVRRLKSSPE

[4] = target: T3, Asah1_IPI:IPI00125266.1 (mouse, UniProt Q9WV54 19-394, limits assumed)
T3 sequence (looked up): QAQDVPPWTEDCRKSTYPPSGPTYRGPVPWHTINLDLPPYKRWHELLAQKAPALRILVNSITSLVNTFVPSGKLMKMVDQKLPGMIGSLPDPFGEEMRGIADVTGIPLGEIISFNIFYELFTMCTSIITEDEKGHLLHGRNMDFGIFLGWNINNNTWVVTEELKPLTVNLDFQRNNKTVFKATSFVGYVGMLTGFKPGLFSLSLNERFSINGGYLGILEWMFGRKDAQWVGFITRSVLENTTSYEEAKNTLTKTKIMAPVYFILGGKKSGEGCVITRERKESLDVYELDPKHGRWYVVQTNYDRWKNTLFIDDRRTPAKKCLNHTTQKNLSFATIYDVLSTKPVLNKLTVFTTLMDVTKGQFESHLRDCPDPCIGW

[5] = target: T4, Hsd17b10_IPI:IPI00320847.1 (mouse, UniProt O08756 2-261)
T4 sequence (looked up): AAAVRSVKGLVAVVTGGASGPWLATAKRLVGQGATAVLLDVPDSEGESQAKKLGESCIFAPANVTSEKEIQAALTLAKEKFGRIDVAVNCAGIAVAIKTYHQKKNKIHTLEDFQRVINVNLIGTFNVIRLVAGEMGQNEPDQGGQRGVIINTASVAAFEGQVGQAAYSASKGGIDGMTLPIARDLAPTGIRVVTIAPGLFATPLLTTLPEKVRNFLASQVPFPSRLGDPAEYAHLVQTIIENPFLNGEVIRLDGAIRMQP

[6] = target: T5, Chchd3_IPI:IPI00133562.1 (mouse, UniProt Q9CRB9 2-227)
T5 sequence (looked up): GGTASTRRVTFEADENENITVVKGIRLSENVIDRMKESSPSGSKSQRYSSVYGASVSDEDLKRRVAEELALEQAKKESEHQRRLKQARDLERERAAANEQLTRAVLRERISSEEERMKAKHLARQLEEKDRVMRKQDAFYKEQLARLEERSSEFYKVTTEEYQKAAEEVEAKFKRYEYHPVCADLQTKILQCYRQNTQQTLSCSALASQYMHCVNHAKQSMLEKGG

[7] = target: Slc1a2_IPI:IPI00230289.1 (mouse, UniProt P43006 1-572, limits assumed)
[8] = target: Hspa9_IPI:IPI00880839.1 (mouse, UniProt P38647 47-679)
[9] = target: T6, Slc6a11_IPI:IPI00136867.1 (mouse, UniProt P31650 1-627)
T6 sequence (looked up): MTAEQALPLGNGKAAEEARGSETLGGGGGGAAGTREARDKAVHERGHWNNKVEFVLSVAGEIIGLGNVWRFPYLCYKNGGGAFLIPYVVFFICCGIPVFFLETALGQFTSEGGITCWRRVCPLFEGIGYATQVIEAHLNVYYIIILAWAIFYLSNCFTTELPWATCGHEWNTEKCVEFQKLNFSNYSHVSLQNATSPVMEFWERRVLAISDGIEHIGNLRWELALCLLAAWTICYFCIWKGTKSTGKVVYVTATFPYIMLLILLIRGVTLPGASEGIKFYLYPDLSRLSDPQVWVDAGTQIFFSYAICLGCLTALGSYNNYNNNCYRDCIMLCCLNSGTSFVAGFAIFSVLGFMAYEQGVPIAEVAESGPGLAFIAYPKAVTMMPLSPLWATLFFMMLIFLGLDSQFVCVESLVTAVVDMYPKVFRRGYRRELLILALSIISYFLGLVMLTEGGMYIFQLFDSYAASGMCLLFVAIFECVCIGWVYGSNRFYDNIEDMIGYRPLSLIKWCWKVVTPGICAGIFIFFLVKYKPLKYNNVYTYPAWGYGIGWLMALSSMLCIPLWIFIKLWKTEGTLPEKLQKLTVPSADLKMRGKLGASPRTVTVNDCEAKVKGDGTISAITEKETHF

Measured: binding result

Sequence of UniProt P43006 (P43006 whole entry): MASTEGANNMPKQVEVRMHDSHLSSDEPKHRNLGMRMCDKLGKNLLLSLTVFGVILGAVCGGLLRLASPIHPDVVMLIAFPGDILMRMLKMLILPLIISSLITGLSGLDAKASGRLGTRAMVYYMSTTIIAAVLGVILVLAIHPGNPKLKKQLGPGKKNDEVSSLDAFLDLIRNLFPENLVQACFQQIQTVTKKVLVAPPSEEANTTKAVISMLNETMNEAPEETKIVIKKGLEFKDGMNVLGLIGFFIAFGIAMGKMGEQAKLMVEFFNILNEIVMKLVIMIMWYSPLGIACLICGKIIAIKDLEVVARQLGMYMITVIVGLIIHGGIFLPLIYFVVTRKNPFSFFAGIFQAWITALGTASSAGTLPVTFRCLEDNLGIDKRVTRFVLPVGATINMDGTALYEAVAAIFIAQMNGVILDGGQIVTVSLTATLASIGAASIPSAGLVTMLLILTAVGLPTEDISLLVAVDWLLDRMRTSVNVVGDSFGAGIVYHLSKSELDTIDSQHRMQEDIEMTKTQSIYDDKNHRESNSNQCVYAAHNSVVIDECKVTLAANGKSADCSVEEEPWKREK
Sequence of UniProt Q8JZU2 (Q8JZU2 14-311 limits assumed): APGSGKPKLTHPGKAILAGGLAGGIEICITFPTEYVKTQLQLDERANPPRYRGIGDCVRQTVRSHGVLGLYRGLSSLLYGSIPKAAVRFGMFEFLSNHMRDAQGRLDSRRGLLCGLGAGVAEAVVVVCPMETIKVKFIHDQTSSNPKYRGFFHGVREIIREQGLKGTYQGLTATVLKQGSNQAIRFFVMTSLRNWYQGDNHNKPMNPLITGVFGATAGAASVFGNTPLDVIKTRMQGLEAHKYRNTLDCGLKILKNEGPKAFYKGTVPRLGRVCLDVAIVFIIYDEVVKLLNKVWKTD
Sequence of UniProt P38647 (P38647 47-679 limits assumed): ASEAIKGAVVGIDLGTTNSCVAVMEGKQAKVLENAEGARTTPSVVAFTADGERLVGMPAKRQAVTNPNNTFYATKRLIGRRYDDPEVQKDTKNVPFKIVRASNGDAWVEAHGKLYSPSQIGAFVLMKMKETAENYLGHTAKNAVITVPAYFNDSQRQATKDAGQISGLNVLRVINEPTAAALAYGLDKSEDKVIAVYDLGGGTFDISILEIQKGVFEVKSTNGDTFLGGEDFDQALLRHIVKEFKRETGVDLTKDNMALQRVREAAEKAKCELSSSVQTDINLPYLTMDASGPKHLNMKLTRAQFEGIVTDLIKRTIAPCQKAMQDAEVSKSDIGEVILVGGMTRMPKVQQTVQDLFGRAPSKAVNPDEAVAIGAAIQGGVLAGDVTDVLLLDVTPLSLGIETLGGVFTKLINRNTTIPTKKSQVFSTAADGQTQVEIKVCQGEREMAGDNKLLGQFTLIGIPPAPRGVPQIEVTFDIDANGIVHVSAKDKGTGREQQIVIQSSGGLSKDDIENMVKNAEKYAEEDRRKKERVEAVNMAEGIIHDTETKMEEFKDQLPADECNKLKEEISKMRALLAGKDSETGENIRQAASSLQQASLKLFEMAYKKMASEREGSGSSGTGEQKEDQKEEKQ

B1: GST alone (other)
chain: not shown
notes: Negative control of the pull-downs; also called control GST
no binding: [1] | [2] | [3] | [4] | [5] | [6] | [7] | [8] | [9]

Source: US20200085917A1 (UNIVERSITY OF PITTSBURGH OF THE COMMONWEALTH SYSTEM OF …, published 2020)
